{"source": "PubChem BioAssay AID504333", "about": "(National Center for Advancing Translational Sciences (NCATS), 2011)", "note": "About 16,000 (4.4%) of roughly 360,000 compounds were called active. The shares of active, inactive and inconclusive entries below differ from those in the screen. The call rests on the fitted dose curve; in most records, active means well fitted inhibition curve with a large enough effect; inconclusive means small, poorly fitted or top-dose-only effect; inactive means no such curve, though single readings can be large or run the other way. Where the call is inconclusive, the potency comes from a doubtful curve fit. Potency means the concentration at half of the fitted maximal effect; tags describe the fitted curve by direction and shape."}
{"molecular_target": "Bromodomain adjacent to zinc finger domain protein 2B (Homo sapiens) (UniProt Q9UIF8)", "sequence (Q9UIF8 whole entry, looked up, the tested form may be a part)": "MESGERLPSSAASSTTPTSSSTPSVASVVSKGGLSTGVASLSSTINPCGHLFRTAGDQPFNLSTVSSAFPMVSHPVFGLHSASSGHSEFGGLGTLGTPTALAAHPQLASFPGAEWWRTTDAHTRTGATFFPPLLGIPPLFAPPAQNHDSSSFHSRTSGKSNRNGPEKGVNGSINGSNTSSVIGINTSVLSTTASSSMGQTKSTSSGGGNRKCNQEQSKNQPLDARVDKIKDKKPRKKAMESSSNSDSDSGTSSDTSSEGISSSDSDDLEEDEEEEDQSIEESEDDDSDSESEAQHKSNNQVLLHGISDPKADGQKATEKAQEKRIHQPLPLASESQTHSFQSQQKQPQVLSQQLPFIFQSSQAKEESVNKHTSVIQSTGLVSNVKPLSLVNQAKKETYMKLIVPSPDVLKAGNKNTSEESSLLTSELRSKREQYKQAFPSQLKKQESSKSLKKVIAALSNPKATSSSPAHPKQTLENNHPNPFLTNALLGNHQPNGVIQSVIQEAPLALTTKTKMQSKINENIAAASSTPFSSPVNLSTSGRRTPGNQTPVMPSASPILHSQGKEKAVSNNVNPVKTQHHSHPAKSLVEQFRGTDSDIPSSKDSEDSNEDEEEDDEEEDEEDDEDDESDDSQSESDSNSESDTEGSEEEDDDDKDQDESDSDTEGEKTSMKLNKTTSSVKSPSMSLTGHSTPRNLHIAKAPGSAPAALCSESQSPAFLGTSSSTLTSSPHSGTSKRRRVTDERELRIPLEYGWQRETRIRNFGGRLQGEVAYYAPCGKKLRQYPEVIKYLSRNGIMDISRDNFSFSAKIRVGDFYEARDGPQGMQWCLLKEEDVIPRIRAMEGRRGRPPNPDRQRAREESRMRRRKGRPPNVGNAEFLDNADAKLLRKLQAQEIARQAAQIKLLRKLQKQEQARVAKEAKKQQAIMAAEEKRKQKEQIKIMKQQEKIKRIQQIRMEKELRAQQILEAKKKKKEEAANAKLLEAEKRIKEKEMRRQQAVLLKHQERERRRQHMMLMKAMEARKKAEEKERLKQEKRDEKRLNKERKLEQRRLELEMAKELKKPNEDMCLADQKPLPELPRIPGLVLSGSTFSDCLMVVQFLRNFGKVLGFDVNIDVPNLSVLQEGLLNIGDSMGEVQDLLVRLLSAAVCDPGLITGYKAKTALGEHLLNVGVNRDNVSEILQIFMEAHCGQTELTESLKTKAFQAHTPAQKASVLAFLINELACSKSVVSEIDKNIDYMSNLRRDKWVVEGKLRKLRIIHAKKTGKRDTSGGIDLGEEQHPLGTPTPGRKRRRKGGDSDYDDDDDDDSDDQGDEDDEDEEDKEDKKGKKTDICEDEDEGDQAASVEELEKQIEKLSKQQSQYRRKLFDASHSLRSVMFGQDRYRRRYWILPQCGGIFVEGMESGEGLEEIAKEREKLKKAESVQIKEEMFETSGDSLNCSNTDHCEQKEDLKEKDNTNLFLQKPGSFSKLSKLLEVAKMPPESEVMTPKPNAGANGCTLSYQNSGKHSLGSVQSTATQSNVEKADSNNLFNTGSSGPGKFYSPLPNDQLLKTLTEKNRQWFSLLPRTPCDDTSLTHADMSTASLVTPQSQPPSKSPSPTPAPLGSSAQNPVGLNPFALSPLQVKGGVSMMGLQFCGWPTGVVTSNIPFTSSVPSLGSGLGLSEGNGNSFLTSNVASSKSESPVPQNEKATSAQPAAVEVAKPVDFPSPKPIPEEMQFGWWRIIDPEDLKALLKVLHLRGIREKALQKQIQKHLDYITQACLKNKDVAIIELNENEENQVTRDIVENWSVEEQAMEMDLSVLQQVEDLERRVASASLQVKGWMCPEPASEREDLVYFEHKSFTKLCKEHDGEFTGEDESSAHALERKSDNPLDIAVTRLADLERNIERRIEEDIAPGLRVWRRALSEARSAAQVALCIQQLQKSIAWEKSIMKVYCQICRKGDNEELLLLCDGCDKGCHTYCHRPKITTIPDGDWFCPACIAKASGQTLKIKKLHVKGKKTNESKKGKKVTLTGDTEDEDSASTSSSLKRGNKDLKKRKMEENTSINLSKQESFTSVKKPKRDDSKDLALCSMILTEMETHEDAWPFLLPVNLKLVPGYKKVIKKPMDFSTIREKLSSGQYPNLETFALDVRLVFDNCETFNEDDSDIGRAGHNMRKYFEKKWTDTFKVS", "assay": "qHTS Assay for Inhibitors of BAZ2B; further: nearly all actives have a fitted effect of over 60% in size", "details": "AlphaScreen BAZ2B-H3K14Ac peptide displacement; series mostly up to 114 µM", "in_short": "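BAZ2B 50 nM plus b-H3(5-23)K14Ac 50 nM, PBS pH 7.4/0.01% Tween-20, 30 min RT; compound added (max 110 uM), 30 min RT; streptavidin donor/Ni-chelate acceptor beads 10 ug/mL final, 20 min dark; AlphaScreen read.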"}
{"compound": "Cc1ccc(CNC(=O)c2ccc(N3CCC4(CC3)CC(c3ccccc3)=NO4)c(NC(=O)c3ccc(Cl)c([N+](=O)[O-])c3)c2)cc1", "Potency": "inactive"}
{"compound": "O=C(Cn1nc(Cc2ccncc2)c2ccccc2c1=O)N1CCc2ccccc2C1", "Potency": "inactive"}
{"compound": "O=C1c2[nH]nc(-c3ccccc3O)c2C(c2cccc(O)c2)N1Cc1ccco1", "note": "(stereo unspecified)", "Potency": "inconclusive: 44.7 µM [inhibitor, partial curve]"}
{"compound": "Cc1ccc(OCc2nnc(SCC(=O)Nc3ncc(C)s3)o2)cc1", "Potency": "inactive"}
{"compound": "COc1ccc(-c2ccc(NS(=O)(=O)c3cc(C)c(C)cc3C)cc2)nn1", "Potency": "inactive"}
{"compound": "O=C(c1ccc(F)cc1)C1CCN(CCn2c(=O)[nH]c3ccccc3c2=O)CC1", "Potency": "inconclusive: 89.1 µM [inhibitor, single point]"}
{"compound": "COc1ccc(CNC(=O)C(=O)NCc2ccncc2)cc1", "Potency": "inconclusive: 89.1 µM [inhibitor, single point]"}
{"compound": "CC1CCN(C(=O)CCc2ccc(Oc3cc([N+](=O)[O-])cc([N+](=O)[O-])c3)cc2)CC1", "Potency": "active: 28.2 µM"}
{"compound": "O=C(CCc1ccccc1)N/N=C\\c1cc2c(cc1Br)OCO2", "Potency": "inconclusive: 89.1 µM [inhibitor, single point]"}
{"compound": "N#Cc1c(C(F)(F)F)cc(-c2cccs2)nc1SCc1ccc(Cl)nc1", "Potency": "inactive"}
{"compound": "Cc1ccc(C(=O)NNC(=O)c2csc(N3CCOCC3)n2)o1", "Potency": "inconclusive: 89.1 µM [inhibitor, single point]"}
{"compound": "Cc1cc(C)n(-c2nc(NCC3CCCO3)c3c4c(sc3n2)COC(C)(C)C4)n1", "note": "(stereo unspecified)", "Potency": "inactive"}
{"compound": "Cc1cc(C(=O)CSc2nc3ccccc3c(=O)n2C)c(C)n1Cc1ccc2c(c1)OCO2", "Potency": "inactive"}
{"compound": "CC1Sc2ccc(S(=O)(=O)CCC(=O)NCc3ccccc3)cc2NC1=O", "note": "(stereo unspecified)", "Potency": "inactive"}
{"compound": "COc1ccc(NC(=S)Nc2ncccc2C)c(OC)c1", "Potency": "active: 39.8 µM"}
{"compound": "CCCOc1ccc(-c2cn3ccccc3n2)cc1[N+](=O)[O-]", "Potency": "inconclusive: 39.8 µM [inhibitor, partial curve]"}
{"compound": "CCCCNC(=S)N=Nc1c(O)n(Cc2ccccc2)c2ccccc12", "Potency": "inconclusive: 22.4 µM [inhibitor, full curve]"}
{"compound": "O=S(=O)(c1ccc(Cl)cc1)c1nc(-c2cccs2)oc1SCc1ccccc1F", "Potency": "inactive"}
{"compound": "Cc1ccc([N+](=O)[O-])cc1N(CC(=O)Nc1ccc(S(=O)(=O)Nc2cccc(C(F)(F)F)c2)cc1)S(C)(=O)=O", "Potency": "inconclusive: 79.4 µM [inhibitor, single point]"}
{"compound": "CN1CCN(Cc2nc3ccccc3c(=O)n2Cc2nc(-c3cccc([N+](=O)[O-])c3)cs2)CC1", "Potency": "active: 39.8 µM"}
{"compound": "CC(=O)c1cc(CC=C(C)C)c(O)cc1O", "Potency": "inactive"}
{"compound": "O=C(CN1C(=O)C2(SCC(=O)N2c2ccc(F)cc2)c2ccccc21)NC1CCCCC1", "note": "(stereo unspecified)", "Potency": "inactive"}
{"compound": "C/C(=N\\NC(=O)CSc1nc(C)cc(C)n1)c1ccc([N+](=O)[O-])cc1", "Potency": "inactive"}
{"compound": "CCOc1ccc(-n2cc(-c3ccccc3)c3c(NC4CCCC4)ncnc32)cc1", "Potency": "inconclusive: 10 µM [inhibitor, full curve, poor fit]"}
{"compound": "CC(C)(C)C1(C)OC(=O)C(=Cc2ccc(OCC(=O)Nc3ccccc3)cc2)C(=O)O1", "note": "(stereo unspecified)", "Potency": "inactive"}
{"compound": "CCOC(=O)NC(=O)CSc1nc2ccccc2[nH]1", "Potency": "inconclusive: 89.1 µM [inhibitor, single point]"}
{"compound": "CC1=CC(C)(C)N2C(=O)C3(C(C#N)=C(N)Oc4cc(O)ccc43)c3cccc1c32", "note": "(stereo unspecified)", "Potency": "inconclusive: 89.1 µM [inhibitor, single point]"}
{"compound": "O=S(=O)(Nc1ccc(-c2cn3ccccc3n2)cc1)c1ccccc1", "Potency": "inconclusive: 50.1 µM [inhibitor, partial curve]"}
{"compound": "O=C(COC(=O)c1ccncc1)Nc1cc(Cl)c(Cl)cc1Cl", "Potency": "inconclusive: 89.1 µM [inhibitor, single point]"}
{"compound": "CC(=O)c1ccc(OC(=O)CCc2nc3ccccc3s2)cc1", "Potency": "inconclusive: 79.4 µM [inhibitor, single point]"}
{"compound": "Cc1nc(N2CCN(c3ccccn3)CC2)c2c(C)c(C(=O)N3CCN(c4ccccc4F)CC3)sc2n1", "Potency": "inconclusive: 22.4 µM [inhibitor, full curve]"}
{"compound": "O=C(Nc1ccccc1)Nc1nnc(SCC(=O)N2CCCCC2)s1", "Potency": "inactive"}
{"compound": "COc1cccc(N=CC=C2OC(C)(C)C(C)(C)O2)c1", "Potency": "inactive"}
{"compound": "Cc1cc(C)c(S(=O)(=O)N2CCOC2CNC(=O)C(=O)NCCc2ccc(S(N)(=O)=O)cc2)c(C)c1", "note": "(stereo unspecified)", "Potency": "inactive"}
{"compound": "COc1ccc(CCNc2oc(Cc3cccc4ccccc34)nc2C#N)cc1OC", "Potency": "inconclusive: 10 µM [inhibitor, full curve]"}
{"compound": "Cc1ccc(NC(=O)CC2NCCN(Cc3ccccc3)C2=O)cc1", "note": "(stereo unspecified)", "Potency": "inactive"}
{"compound": "CSc1ccc(/C=C(\\NC(=O)c2ccccc2)C(=O)NN)cc1", "Potency": "inconclusive: 79.4 µM [inhibitor, single point]"}
{"compound": "CC(=O)Nc1ccc(S(=O)(=O)N2CCN(CCc3ccccc3)CC2)cc1", "Potency": "inconclusive: 20 µM [inhibitor, single point]"}
{"compound": "Cn1c(=O)c(C#N)c(-c2ccc(F)cc2)c2cc(C(=O)c3cc(Cl)cc(Cl)c3O)cnc21", "Potency": "active: 35.5 µM"}
{"compound": "COCCn1c(C)cc(/C=C2\\NC(=S)N(C)C2=O)c1C", "Potency": "active: 50.1 µM"}
{"compound": "O=C(C1CCC1)N1CCN(S(=O)(=O)c2ccc(F)cc2)CC1", "Potency": "active: 79.4 µM"}
{"compound": "C=Cc1ccc(Cn2c(C)c(CNCCc3ccc(OCC)cc3)c(C(=O)O)c2C)cc1", "Potency": "inconclusive: 44.7 µM [inhibitor, partial curve]"}
{"compound": "CCOC(=O)c1c(C)[nH]c(C)c1S(=O)(=O)N1CCC(C(=O)N2CCN(c3ccc(F)cc3)CC2)CC1", "Potency": "inconclusive: 79.4 µM [inhibitor, single point]"}
{"compound": "CN(CCOc1ccccc1)C(=O)C1CCC(=O)N(CCN2CCOCC2)C1", "note": "(stereo unspecified)", "Potency": "inconclusive: 89.1 µM [inhibitor, single point]"}
{"compound": "O=C(NCCCN1CCN(c2cccc(Cl)c2)CC1)c1ccc2nc(Cc3ccccc3)oc2c1", "Potency": "inconclusive: 14.1 µM [inhibitor, full curve]"}
{"compound": "Cc1cccc(Nc2sc(C(=O)c3ccc(Cl)cc3)c(N)c2C(N)=O)c1", "Potency": "inconclusive: 25.1 µM [inhibitor, full curve]"}
{"compound": "Cc1ccc(S(=O)(=O)Oc2ccc(C3C4=C(CCCC4=O)OC4=C3C(=O)CCC4)cc2)cc1", "Potency": "inconclusive: 89.1 µM [inhibitor, single point]"}
{"compound": "Cc1cc(C)nc(N2CCC(C(=O)NCc3cccs3)CC2)n1", "Potency": "inconclusive: 89.1 µM [inhibitor, single point]"}
{"compound": "O=C1CN(C(=O)COC(=O)c2ccccc2Br)c2ccccc2N1", "Potency": "inactive"}
{"compound": "CCOc1cccc(/C(O)=C2/C(=O)C(=O)N(Cc3ccco3)C2c2ccncc2)c1", "note": "(stereo unspecified)", "Potency": "inconclusive: 89.1 µM [inhibitor, single point]"}
{"compound": "COc1ccc(-n2cc(C(=O)O)c(=O)cc2C)cc1", "Potency": "inconclusive: 79.4 µM [inhibitor, single point]"}
{"compound": "Cc1ccc(-c2n[nH]c(=S)n2/N=C/C=C\\c2ccccc2[N+](=O)[O-])cc1", "Potency": "inconclusive: 50.1 µM [inhibitor, partial curve]"}
{"compound": "O=C(Cn1c[n+](CC(=O)c2ccc([N+](=O)[O-])cc2)cn1)c1ccc([N+](=O)[O-])cc1", "Potency": "inconclusive: 89.1 µM [inhibitor, single point]"}
{"compound": "CCc1ccc(NC(=O)CCN2C(=O)c3cccnc3C2=O)cc1", "Potency": "inconclusive: 89.1 µM [inhibitor, single point]"}
{"compound": "Cc1cccc(NC(=O)CSC2=NN3CCCC(=O)N=C3S2)c1C", "Potency": "active: 50.1 µM"}
{"compound": "CC(C)c1ccc(OCCCN2CCCC2)cc1", "Potency": "active: 56.2 µM"}
{"compound": "CC(C)(C)c1ccc(C(=O)NNc2ncccc2-n2cccc2)cc1", "Potency": "inconclusive: 50.1 µM [inhibitor, partial curve]"}
{"compound": "COc1ccccc1/C=C1\\SC(=S)N(NS(=O)(=O)c2ccccc2)C1=O", "Potency": "inconclusive: 56.2 µM [inhibitor, partial curve]"}
{"compound": "CCc1ccc2nc(N(CCN(C)C)C(=O)c3ccc4ncsc4c3)sc2c1", "Potency": "inconclusive: 50.1 µM [inhibitor, partial curve]"}
{"compound": "CCn1c(-c2cccnc2)n[nH]c1=S", "Potency": "inconclusive: 89.1 µM [inhibitor, single point]"}
{"compound": "COc1cccc(CNC(=O)CCn2cnc3ccccc3c2=O)c1", "Potency": "inconclusive: 31.6 µM [inhibitor, partial curve, poor fit]"}
{"compound": "Cn1c(=O)c2[nH]c(CN3CCN(Cc4ccccc4)CC3)nc2n(C)c1=O", "Potency": "inactive"}
{"compound": "O=C(Nc1ccc(C(=O)N2CCCCC2)cc1)c1cccc([N+](=O)[O-])c1", "Potency": "inconclusive: 89.1 µM [inhibitor, single point]"}
{"compound": "Brc1ccc2c(c1)C(c1ccc(N3CCOCC3)cc1)=NNC(c1cccs1)=N2", "Potency": "inconclusive: 44.7 µM [inhibitor, partial curve]"}
{"compound": "COc1ccc(S(=O)(=O)N2CCCC(C(=O)NC3CC3)C2)cc1OC", "note": "(stereo unspecified)", "Potency": "inactive"}
{"compound": "CN(C)c1ccc(/C=C(/NC(=O)c2ccccc2)C(=O)NCCCn2ccnc2)cc1", "Potency": "active: 35.5 µM"}
{"compound": "CCN1CCN(C2=NC(=O)/C(=C/c3ccc(C)o3)S2)CC1", "Potency": "inconclusive: 89.1 µM [inhibitor, single point]"}
{"compound": "Cc1ccccc1OCC(O)CN1CCN(CCN2C(=O)c3cccc4cccc(c34)C2=O)CC1", "note": "(stereo unspecified)", "Potency": "inconclusive: 79.4 µM [inhibitor, single point]"}
{"compound": "CCc1ccc(NC(=O)Cc2ccc(OC)cc2)cc1", "Potency": "inactive"}
{"compound": "COc1cccc(N2CC(NC(=O)COc3ccccc3F)CC2=O)c1", "note": "(stereo unspecified)", "Potency": "inactive"}
{"compound": "CCN1C(=O)[C@@H]2[C@@H](c3ccc(-c4ccc(OC)cc4)c(OC)c3)N3CCCC[C@@]3(C(=O)OC)[C@@H]2C1=O", "Potency": "inactive"}
